# Results as given in PubChem BioAssay AID1476 (National Center for Advancing Translational Sciences (NCATS), 2009).
# Values joined by “and” are separate entries in the source; they are usually repeats but may differ in a detail not shown here. Equal entries are not always repeated. About 4,500 (2.2%) of roughly 200,000 compounds were called active. Inconclusive results, whose numbers are uncertain, are shown with a selection of clear calls. The call rests on the fitted dose curve; in most records, active means well fitted inhibition curve with a large enough effect; inconclusive means small, poorly fitted or top-dose-only effect, or effect the other way; inactive means flat fitted curve, though single readings scatter. Where the call is inconclusive, the potency comes from a doubtful curve fit. Some structures have more than one record in an assay (separate samples or runs), and their calls can disagree.
# Target: Cruzipain (Trypanosoma cruzi) (UniProt P25779)
# Assay: qHTS Assay for Promiscuous and Specific Inhibitors of Cruzain (without detergent); further: nearly all actives have a fitted effect of over 40% in size;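 on max response, negative = inhibition: plate controls were enzyme without inhibitor for no effect and buffer without enzyme for full effect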
# Conditions: purified cruzain, Z-FR-AMC fluorescence, no detergent
# How it was run: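 Purified cruzain at 1.5 nM, pre-incubated 15 min with compound at room temperature in 100 mM sodium acetate pH 5.5, 5 mM DTT, 0.00005% Triton X-100. Reaction started with 2 uM Z-FR-AMC; AMC fluorescence increase over 60 s gives rate.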
# Potency means the concentration at half of the fitted maximal effect; tags describe the fitted curve by direction and shape.
# Chain of UniProt P25779 (P25779 whole entry, looked up): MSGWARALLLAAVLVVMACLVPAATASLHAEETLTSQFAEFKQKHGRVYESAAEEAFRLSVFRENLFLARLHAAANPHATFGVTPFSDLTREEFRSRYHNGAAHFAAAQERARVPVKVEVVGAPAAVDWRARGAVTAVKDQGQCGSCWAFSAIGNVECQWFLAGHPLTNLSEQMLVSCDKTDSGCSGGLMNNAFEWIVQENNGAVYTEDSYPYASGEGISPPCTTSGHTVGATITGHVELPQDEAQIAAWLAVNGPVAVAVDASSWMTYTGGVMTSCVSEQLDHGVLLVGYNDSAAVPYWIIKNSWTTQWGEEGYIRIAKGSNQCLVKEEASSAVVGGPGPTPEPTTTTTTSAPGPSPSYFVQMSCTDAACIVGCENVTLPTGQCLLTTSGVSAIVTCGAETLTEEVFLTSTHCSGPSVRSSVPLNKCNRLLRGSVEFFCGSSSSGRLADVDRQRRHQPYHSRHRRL
Structure (SMILES),Potency,"max response, negative = inhibition"
COc1ccc(CCNC(=O)c2cc3c(-c4ccc(OC)c(OC)c4)nn(C)c3s2)cc1OC,"inconclusive: 15.8 µM [activator, partial curve]",–
CC(=O)c1ccc(Oc2ccc(C(=O)c3ccc(C)c(C)c3)cc2[N+](=O)[O-])cc1,"inconclusive: 25.1 µM [inhibitor, single point]",–
COC(=O)[C@H](COC(C)(C)C)NC(=O)O[C@H]1C(=O)c2ccc(OC)cc2O[C@@H]1c1ccc2c(c1)OCO2,–,inactive: 0.129%
COc1ccc(/C=C/C(=O)Nc2cc(C)on2)cc1,"inconclusive: 31.6 µM [inhibitor, single point]",–
O=C(N/N=C/c1sc(N2CCOCC2)nc1-c1ccccc1)c1ccccc1O,"inconclusive: 31.6 µM [activator, single point]",–
O=C(Nc1nc(-c2cccs2)cs1)c1ccc(Cl)s1,"inconclusive: 39.8 µM [inhibitor, single point]",–
Cc1ccc(Nc2c(-c3ccc(N4CCOCC4)cc3)nc3c(C)cccn23)cc1,–,inactive: -0.426%
O=C(NC(=S)Nc1cccc(Cl)c1N1CCCCC1)c1ccc2c(c1)OCCO2,active: 12.6 µM,–
O=C(COC(=O)/C=C/c1ccc2c(c1)OCO2)Nc1ccc(S(=O)(=O)N2CCCC2)cc1,active: 31.6 µM,–
C=Cc1ccc(Cn2c(C(=O)O)c(CNCCc3ccccc3)c3ccc(C)cc32)cc1,"inconclusive: 39.8 µM [inhibitor, single point]",–
O=C(CSc1nc2c([nH]c3ccccc32)c(=O)n1-c1ccccc1)c1ccc(Cl)cc1,–,inactive: 0.744%
COc1cccc(NC(=O)C(Sc2nc3ccccc3c(=O)n2CC(C)C)c2ccccc2)c1 (stereo unspecified),active: 5.01 µM,–
Nc1c(C(=O)NCCc2ccccc2)nnn1CC(=O)Nc1ccc(Cl)cc1,active: 25.1 µM,–
Cc1cc(C)nc(NS(=O)(=O)c2ccc(NC(=O)c3cc(=O)c4ccc(C)c(C)c4o3)cc2)n1,"inconclusive: 20 µM [activator, single point]",–
Nc1c(C(=O)Nc2cccc(F)c2)sc2nc(-c3cccs3)ccc12,"inconclusive: 31.6 µM [inhibitor, single point]",–
COc1ccc(CNC(=O)CCC2N=C3c4ccccc4N=C(SCc4ccc(F)cc4)N3C2=O)cc1 (stereo unspecified),"inconclusive: 39.8 µM [activator, single point]",–
CC(=O)Nc1ccc(-c2cc(-c3ccc(NC(C)=O)cc3)nc(-c3ccccc3)n2)cc1,active: 15.8 µM,–
COc1ccc(OC)c(NC(=O)c2c(NCc3ccc(OC)c(OC)c3)sc3c2CCC(C)C3)c1 (stereo unspecified),"inconclusive: 39.8 µM [activator, single point]",–
c1cnc(Nc2nc(-c3ccc4ccccc4c3)cs2)nc1,active: 3.98 µM,–
CC[N+](=O)[O-],–,inactive: -7.62%
Cc1ccc2nc(NC(=O)c3ccc(S(=O)(=O)N4CCCc5ccccc54)cc3)sc2c1,active: 6.31 µM,inactive: -3.16%
CC(C)[C@@H](C(=O)O)N1C(=O)c2ccccc2C1=O,–,inactive: 12.2%

Structure (SMILES),Potency,"max response, negative = inhibition"
O=C(Nc1ccc(F)cc1)c1oc2ccccc2c1NC(=O)C1CCCCC1,–,inactive: 4.03%
CCOc1cc(C2C(C(=O)OCC(C)C)=C(C)N=C3SCCC(=O)N32)ccc1OC(C)=O (stereo unspecified),"inconclusive: 31.6 µM [activator, single point]",–
Oc1ccccc1-c1cc(-c2ccccc2)no1,"inconclusive: 25.1 µM [inhibitor, single point]",–
O=C(CCCCl)Oc1ccc2cc(-c3ccc4ccccc4n3)c(=O)oc2c1,"inconclusive: 39.8 µM [inhibitor, single point]",–
COc1ccc(N2CC(C)Cn3c2nc2c3c(=O)n(Cc3ccccc3F)c(=O)n2C)c(OC)c1 (stereo unspecified),"inconclusive: 31.6 µM [activator, single point]",–
COc1cc(OC)cc(-c2nc3ccccc3c(=O)n2OC(=O)c2ccc(Br)cc2)c1,active: 25.1 µM,–
CCn1c2ccccc2c2cc(NC(=O)c3cccc([N+](=O)[O-])c3C)ccc21,"inconclusive: 31.6 µM [inhibitor, single point]",–
COc1cccc(NC(=O)Cn2c(=O)n(Cc3ccc(C(=O)NCc4ccc5c(c4)OCO5)cc3)c(=O)c3ccccc32)c1,active: 12.6 µM,–
O=C(NCc1ccc(C(F)(F)F)cc1)C12CN(Cc3ccccc3)CC1C(c1cccc([N+](=O)[O-])c1)=NO2 (stereo unspecified),"inconclusive: 31.6 µM [inhibitor, single point]",–
COC(=O)Cc1cc(=O)n(-c2nc3ccccc3s2)[nH]1,"inconclusive: 3.16 µM [activator, full curve]",–
O=c1c(O)c(-c2ccc(O)c(O)c2)oc2cc(O)cc(O)c12,active: 20 µM,inactive: -3.08% and inactive: -29.2%
COc1ccc(C2CC(C(F)(F)F)n3nc(C(=O)Nc4c(C)n(C)n(-c5ccccc5)c4=O)c(Cl)c3N2)cc1 (stereo unspecified),"inconclusive: 31.6 µM [activator, single point]",–
COc1ccc(C2c3c(n(C)c4ccccc34)C(=O)N2CC(=O)Nc2ccc(C)cc2Cl)cc1 (stereo unspecified),"inconclusive: 31.6 µM [inhibitor, single point]",–
CCc1ccc(CNC(=O)Cn2nc(-c3ccc(Cl)cc3)ccc2=O)cc1,"inconclusive: 39.8 µM [activator, single point]",–
CCN(CC)S(=O)(=O)c1ccc(-c2csc(=Nc3cccc(C(F)(F)F)c3)n2Cc2ccc3c(c2)OCO3)cc1,–,inactive: -11.2%
COc1ccc(N=C2S/C(=C\c3cc(C)n(C)c3C)C(=O)N2CC(C)C)cc1,–,inactive: -2.1%
Cc1cccc(N2CCN(C(=O)C(C)n3nc(C)n4c(cc5occc54)c3=O)CC2)c1C (stereo unspecified),"inconclusive: 31.6 µM [activator, single point] and inconclusive: 39.8 µM [activator, single point]",–
O=[N+]([O-])c1ccc(N2CCN(S(=O)(=O)c3ccc(Cl)cc3)CC2)cc1NCC1CCCO1 (stereo unspecified),"inconclusive: 39.8 µM [inhibitor, single point]",–
O=C(N/N=C/c1c(O)n(-c2ccccc2)c(=O)[nH]c1=O)c1ccncc1,–,inactive: 1.61%
CN1CCN(CCCNN)CC1,–,inactive: 3.45%
CC(=O)Nc1ccccc1C(=O)C(=O)Nc1ccc(C)c(F)c1,"inconclusive: 25.1 µM [activator, single point]",–
Cc1ccc2nc(C3CCN(C(=O)NCc4ccccc4)CC3)[nH]c2c1,–,inactive: -2.78%

Structure (SMILES),Potency,"max response, negative = inhibition"
CCC(C)C(=O)N1c2ccccc2C(=C2SC(C(=O)OC)=C(C(=O)OC)S2)C(=S)C1(C)C (stereo unspecified),"inconclusive: 20 µM [inhibitor, partial curve]",–
Cc1ccc(S(=O)(=O)NCCc2nnc3ccc(SCc4ccccc4F)nn23)cc1,"inconclusive: 39.8 µM [activator, single point]",–
Cc1ccc(C)c2c1cc(C)c1nnc(SCC(=O)Nc3nc4c(s3)CCCC4)n12,"inconclusive: 39.8 µM [activator, single point]",–
COc1cccc(Oc2ccc(N/C=C/C(=O)C(C)(C)C)cc2)c1,"inconclusive: 1.26 µM [inhibitor, single point]",–
Cc1cccc2cc(CN(Cc3ccco3)C(c3nnnn3CCc3ccccc3)C(C)C)c(=O)[nH]c12 (stereo unspecified),"inconclusive: 39.8 µM [inhibitor, single point]",–
Cc1ccc(N(CC(=O)Nc2ccc(F)cc2F)S(=O)(=O)c2cccs2)cc1,–,inactive: -6.6%
COc1ccc(C(=O)NCCc2csc(-c3ccc(Cl)cc3)n2)cc1,"inconclusive: 31.6 µM [activator, single point]",–
O=C(Cn1cnc2ccccc2c1=O)Nc1ccc2c(c1)CCC2,–,inactive: 3.19%
CC1(C)CC(=O)C2=C(C1)N(Cc1ccccc1)C(=O)C2(NC(=O)C(C)(C)C)C(F)(F)F (stereo unspecified),"inconclusive: 25.1 µM [activator, single point]",–
Cc1csc(NC(=O)CSc2nnc(Cc3cccn3C)n2CCc2ccccc2)n1,"inconclusive: 39.8 µM [activator, single point]",–
CCC1=C(OC(=O)N(CC)CC)N2C(=O)OC(=NCCOC)[C@]2(C)[C@H]2C1=CC[C@H]1C(=O)N(C)C(=O)[C@H]12,"inconclusive: 31.6 µM [activator, single point]",–
CCc1ccc(C(=O)NCc2ccc(Cl)cc2)cc1,"inconclusive: 39.8 µM [inhibitor, single point]",–
COc1ccc(CCNC(=O)c2ccc3c(c2)N(Cc2ccccc2Cl)C(=O)c2ccccc2S3)cc1OC,"inconclusive: 39.8 µM [inhibitor, single point]",–
CC1=CC(=O)[C@@H]2C[C@H]1C2(C)C,–,inactive: -5.39%
Cc1ccc(C)n1NC(=O)c1ccc(Cl)cc1Cl,active: 12.6 µM,–
O=C(c1cccc(F)c1)N1CCC2(CCCN(c3cccc(-c4ccccc4)c3)C2)CC1,"inconclusive: 31.6 µM [inhibitor, single point]",–
CCCOc1ccc(CNC(=S)N/N=C/c2ccc([N+](=O)[O-])cc2)cc1,"inconclusive: 5.01 µM [inhibitor, partial curve]",–
Cc1csc(NC(=O)c2cc3c(s2)-c2ccccc2OC3)n1,"inconclusive: 31.6 µM [inhibitor, single point]",–
COc1ccc(-c2nn3c(-c4ccccc4)nnc3s2)cc1OC,"inconclusive: 39.8 µM [activator, single point]",–
O=C(Nc1ccc(NC(=O)c2ccco2)cc1)c1ccc2c(c1)OCO2,"inconclusive: 31.6 µM [inhibitor, single point]",–
